Reference: the RNAGym collection of RNA variant scans (doi:10.1073/pnas.2313332121)
This sample is rich in variants without activity.

B1: TPR 5TU (parent)
chain: GGAUCUUCUCGAUCUAACAAAAAAGACAAAUCUGCCACAAAGCUUGAGAGCAUCUUCGGAUGCAGAGGCGGCAGCCUUCGGUGGCGCGAUAGCGCCAACGUUCUCAACUAUGACACGCAAAACGCGUGCUCCGUUGAAUGGAGUUUAUCAUG

Variants of: B1
Assay: polymerase ribozyme fitness, log enrichment relative to wild type (log ratio); higher = more active; in vitro selection for triplet polymerase activity
Procedure, shortened: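 Genotype fitness is the logarithm of its enrichment divided by wild-type enrichment, using inverse-variance-weighted averages of replicates. That logarithm is base 2. Enrichment was measured by Illumina sequencing of input and output libraries from one triplicate in vitro selection round, with frozen incubation at −7 °C, on PCR-built, transcribed mutant libraries of each subunit of a heterodimeric triplet polymerase ribozyme, retaining genotypes with ≥10 input reads and ≥1 read per output.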

Row | Variant | polymerase ribozyme fitness (log ratio)
1 | G68C C93G C131A | ≤ -4.2
2 | G68C C99G A106G C129U | ≤ -4.2
3 | G68C G83A | ≤ -4.2
4 | G68C G83U G133U A137C | ≤ -4.2
5 | G68C U78C G86A | ≤ -4.2
6 | G68C U78G G84A G152U | ≤ -4.2
7 | G68C U82G G133U U134A A138U | ≤ -4.2
8 | G68U | -3.71
9 | G68U A73G G83A A89U U90C G136C G141C | ≤ -4.2
10 | G68U C76A C85U A107G | ≤ -4.2
11 | G68U C76U A98U C99G U102A C118U A120U | ≤ -4.2
12 | G68U C85A G143A U145A A147U | ≤ -4.2
13 | G68U C95U C96U A113C G124U | ≤ -4.2
14 | G68U G81A | ≤ -4.2
15 | G68U G83A A98G G124A G140C | ≤ -4.2
16 | C69A C76U A98U C125U | -1.9
17 | C69A C76U C79A C87A A142C G152C | ≤ -4.2
18 | C69A C93G C96A A98G | ≤ -4.2
19 | C69A C96U A121C U127G A147U | ≤ -4.2
20 | C69A C118G | -2.21
21 | C69A G70A | -4.19

Row | Variant | polymerase ribozyme fitness (log ratio)
22 | C69A G71U | -0.808
23 | C69A G84A A89G U146C | -2.59
24 | C69A G140U | -3.21
25 | C69A U109G A138G | ≤ -4.2
26 | C69A U144C | -1.07
27 | C69G C85A G94U | -1.01
28 | C69G C85U A91G C118A C129G U144A | ≤ -4.2
29 | C69G C87A A91C G126A | ≤ -4.2
30 | C69G C93G | -3.97
31 | C69G C103G C116U | -2.03
32 | C69G G71C A121U G133U C149U | ≤ -4.2
33 | C69G G88A U90G U146A | ≤ -4.2
34 | C69G G126U C131A | ≤ -4.2
35 | C69U A73G G83C | -3.38
36 | C69U A106U U109C A122U C125U | ≤ -4.2
37 | C69U C72A A119G A137G | ≤ -4.2
38 | C69U C75G U90C G94U U102C A137G | ≤ -4.2
39 | C69U C75U G92A U104G G133U C149U | ≤ -4.2
40 | C69U C76G A97G U144C C149A G152A | ≤ -4.2
41 | C69U C85A | -3.16
42 | C69U C87A G141U G143A | ≤ -4.2

Row | Variant | polymerase ribozyme fitness (log ratio)
43 | C69U C95U | -1.47
44 | C69U C108U U109G A121U | ≤ -4.2
45 | C69U G70C C93G C114A A150C | ≤ -4.2
46 | C69U G74U C93U C103U G143A | ≤ -4.2
47 | C69U G83A G88A A113U G141C | ≤ -4.2
48 | C69U G84C C132G G143A | ≤ -4.2
49 | C69U G100A A137C | ≤ -4.2
50 | C69U G136A A142U | -0.531
51 | G70A A73G G86U U90C A119C A120U | ≤ -4.2
52 | G70A A73U C87G C96G | ≤ -4.2
53 | G70A A73U G133A U135G | ≤ -4.2
54 | G70A A89G G92U A107G | ≤ -4.2
55 | G70A C85A C93A G126C G128U C129A | ≤ -4.2
56 | G70A C93U G141C | ≤ -4.2
57 | G70A C95U U144C A150G | ≤ -4.2
58 | G70A C96U | -2.89
59 | G70A C103G A122U | ≤ -4.2
60 | G70A G71A C87U C123U A138C | ≤ -4.2
61 | G70A G74A U101G U104C A147U | ≤ -4.2
62 | G70A G83C G94A C95U A107U C118U | ≤ -4.2
63 | G70A G83U C105A A147C U148A | ≤ -4.2

Row | Variant | polymerase ribozyme fitness (log ratio)
64 | G70A G84A C87G A113C A120G | ≤ -4.2
65 | G70A G84A G88A U145A | ≤ -4.2
66 | G70A G88C U144C | ≤ -4.2
67 | G70A U77G G100C U109G | ≤ -4.2
68 | G70A U104A A110U | ≤ -4.2
69 | G70A U139A G141A G143C | ≤ -4.2
70 | G70C A142C | -3.72
71 | G70C C76A C79U C87A | ≤ -4.2
72 | G70C C79U G94C | ≤ -4.2
73 | G70C C116U U127C G136U | ≤ -4.2
74 | G70C C118G | ≤ -4.2
75 | G70C G94C A107G C125G | ≤ -4.2
76 | G70C U82G G126A U139G | ≤ -4.2
77 | G70U A73G C79G A91U G100A | ≤ -4.2
78 | G70U A122C U144G | -2.06
79 | G70U C76A | -4.19
80 | G70U G80U A119G | ≤ -4.2
81 | G70U U77A U78G G92U G124U | ≤ -4.2
82 | G71A A89U C93A U102C G133U U148C | ≤ -4.2
83 | G71A A91U C95G A119U A121G C129A A147G | ≤ -4.2
84 | G71A A98U U101G G141A | ≤ -4.2
